Experimental data published in the supplement of paper PMC11417369.
This is one part of the list.

The sequences below were run on PF3D7_0420300 AP2 domain 1 (GST-tagged) (assay: gcPBM binding intensity (ln(normalized median fluorescence intensity)); higher = stronger DNA binding).
Procedure, shortened: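 GST-tagged P. falciparum DNA-binding domains, expressed in E. coli (about 25 μg on average), were applied for 1 h to an Agilent 4 × 180k array of primer-extended double-stranded 36-bp intergenic genomic probes plus negative controls. The binding buffer was 1× PBS with 1% milk, 0.2 mg/ml BSA, 0.5% salmon testes DNA and 0.03% Triton X-100. Bound protein was detected with Alexa488 anti-GST antibody and scanned at 488 nm. Binding intensity is the highest Masliner-normalised natural-log median intensity across replicate spots of either probe orientation.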

| Sequence | gcPBM binding intensity (ln) |
| --- | --- |
| TTAAAACATAAAAAAAGTACATACAAATATATATAA [XGTACX_site789] | 9.51 |
| AATTATATTACGAAATGTACATATAATAATGTATAT [XGTACX_site4410] | 9.25 |
| GCCATTGTACCATCCACACACATATATATATGTATA [CACACA_site2704] | 9.88 |
| TTCAAAACTTAAAATCGTACAAGACAATTATTATAT [XGTACX_site6626] | 9.07 |
| TACAAAATAACTAGCACACATATGTATAAACATATA [CACACA_site5948] | 9.52 |
| TATGTCAATCAAGCAAGTACATATATATATAAATAT [XGTACX_site7554] | 9.09 |
| CTTTTAATATTAAGATGTACTTAGAATTTTTTTTTT [XGTACX_site8338] | 8.98 |
| TTTTTTGTTATTGGCGTGCACATATCCATTTATAGT | 9.33 |
| CATATATATTTATGTACACACATTAATAAAAAAAAA [CACACA_site5741] | 9.46 |
| ATATATATAAATAATTGTACTTAAAAAAAAAAAAGG [XGTACX_site6847] | 9.23 |
| TGTAGAGCGCAAAGTAGTACTACAAATTATGGAGGG [XGTACX_site3022] | 9.44 |
| AACAGCATATCACATTTCTTCAAAAAAAAATAAAAT [CACACA_negctrl_site733] | 9.19 |
| CATCTTAGTTTGAGTTGTACAATATTTATAAAAATA [XGTACX_site693] | 9.06 |
| ACAAGTTTAACATTTCGTACTTATTGTGTTTTTTTT [XGTACX_site5487] | 9.54 |
| ATATATATTTAAAGATGTACATAATGAAATGGTTAT [XGTACX_site4706] | 9.5 |
| GCAGTATTTCGGAACACACAAACATAAATATGTATT [CACACA_site2316] | 9.44 |
| ATATATATATATGTATGTACATATTTTTTTTAACAC [XGTACX_site8475] | 9.24 |
| GCACAATTTACACTTAAACACACAAAAAAAAATTAT [CACACA_site8642] | 9.43 |
| AAATTTATTTATTATAGTACACTTAATACTACCCAA [XGTACX_site41] | 9.02 |
| AGCACAGACGGACACACACACACACCCACAGACACA [CACACA_site4358] | 10.2 |
| TATACACGCGGACACACACACACACGCAAAAAAAAA [CACACA_site6377] | 10.1 |
| TAAAAACCAAAGAAAAGTACAAATTTAAATGAGAAA [XGTACX_site7450] | 9.42 |

| Sequence | gcPBM binding intensity (ln) |
| --- | --- |
| ATAAGCCATTTTTGTGGTACATAAAATAGATATATA [XGTACX_site5175] | 9.09 |
| TTTACACCGTAATATGCATGTGTGTATATATTTTTG [TGCATGCA_site186] | 9.45 |
| TTATCTTACATATATCATTAAATCATATAACAAAAA [XGTACX_negctrl_site517] | 8.92 |
| AACCTCATGGACATATGTACACATATACAATTATTT [XGTACX_site6533] | 9.36 |
| GTTATATTTAAAATAGTGCAATAAAAATAATAATAT | 9.3 |
| CCTTTATAATTGGAAACACACATATAAAGTATATAT [CACACA_site3900] | 9.2 |
| CACAAATATACAAATACACACAAATATACGCATATA [CACACA_site2384] | 9.83 |
| TTATGTATTTTAAATGGTTTTATTATAAAGTTTAAT [CACACA_negctrl_site1470] | 9.13 |
| TACATAACTTTAATCACACACAAACAAACACATACA [CACACA_site6235] | 9.77 |
| AAAATACATGGACACACACACACACCGATATATATA [CACACA_site5885] | 10.3 |
| ATATAATATATATACAAACACACAATTGTGTCCACA [CACACA_site1748] | 9.61 |
| AAATATACATATATATGTACATATAAATATATTTTA [XGTACX_site5266] | 9.12 |
| TAGTTTTCTTAAAGATGTACTTATTAAAAATAAACT [XGTACX_site1001] | 8.81 |
| AATGATTGATTTTATTGTACGTACTCGGAATATGGT [XGTACX_site4976] | 9.21 |
| TATAGATAAATTATTTGTACTTATAAAATTATTATA [XGTACX_site2870] | 8.97 |
| GAATTTTAAATAAACATATAAACAGAAAAAAAAAAA [TGCATGCA_negctrl_site149] | 9.37 |
| TGGTTATAATTGTACGCATGTAATTACATATTCTCT [TGCATGCA_site599] | 9.39 |
| AATATGCCTCCCCAAAAAAAATATATATATATTTAT [GTGCAC_negctrl_site716] | 9.16 |
| TATATTTAAATATATACACACATTATCATTTTCATA [CACACA_site1708] | 9.58 |
| TTTTTTACTATATCAATTACAAAACAAAAAAAAAAA [GTGCAC_negctrl_site683] | 8.96 |
| TATCATTTGGTCTTTTACTTTTTCTGTTTTTTTTTT [CACACA_negctrl_site976] | 9.69 |
| AAATATGTTTCAAAAAGTACATTTCTATCTTTTTTT [XGTACX_site7178] | 9.22 |
